In PubChem BioAssay AID904 (National Center for Advancing Translational Sciences (NCATS), 2007):
About 530 (0.96%) of roughly 55,000 compounds were called active. The inconclusive results got no clear call from the source; some entries with a clear call stand among them for comparison. Calls follow the shape of the dose curve; as a rule, active = well fitted cell-killing curve with a large enough effect; inconclusive = small, poorly fitted or top-dose-only effect; inactive = no such curve, though single readings can be large or run the other way. Potencies beside an inconclusive call are fits to weak or partial responses and may not hold up.

Assay: qHTS Screen for Compounds that Selectively Target Cancer Cells with p53 Mutations: Cytotoxicity of p53 Null Cells at the Nonpermissive Temperature; also: nearly all actives have a fitted effect of over 50% in size;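 as to activity, negative = cell killing: 0% = DMSO only and -100% = full killing by 100 µM tamoxifen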
Conditions: H1299 p53-null (neo) cells, 39C, ATPlite viability, 24 h; activity, negative = cell killing: at 46.1 µM (top of the series)
How it was run: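 Luminescent ATP signal reported cell survival after H1299 lines (neo, p53 null; or p53 A138V) received up to 46 uM compound and 24 hr incubation at 39C.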
Potency is read from the fitted curve at half-maximal effect; tags tell the direction and shape of the fitted curve.

SMILES | Potency | activity, negative = cell killing
Cc1oc(-c2cccc(Cl)c2)nc1CN1CCCC(C(=O)NCc2ccc(F)cc2)C1 (stereo unspecified) | inconclusive: 31.6 µM [cytotoxic, single point] | 
CCOC(=O)c1sc2ccccc2c1S(=O)(=O)Nc1cccc(C(F)(F)F)c1 | inconclusive: 11.2 µM [cytotoxic, partial curve] | 
Cc1ccc(C)c(Cn2nnc(C(=O)NCc3ccc(Cl)cc3Cl)c2N)c1 | inconclusive: 15.8 µM [cytotoxic, single point] | 
CCCCNS(=O)(=O)c1ccc2nc(NC(=O)c3cccnc3)sc2c1 | inconclusive: 0.002 µM [cytotoxic, full curve, poor fit] | 
COc1cccc(CNC(=O)c2ccc(Cn3c(SCc4ccccc4)nc4cccnc43)cc2)c1 | inconclusive: 12.6 µM [cytotoxic, single point] | 
CCCCN(C)C(=O)c1cn(C)c2ccc(S(=O)(=O)N(C)C)cc2c1=O | inactive | 
COc1ccccc1Nc1nn2c(=O)c3ccc(C(=O)NCc4cccs4)cc3nc2s1 | inconclusive: 31.6 µM [cytotoxic, single point] | 
O=C(Nc1cc(Cl)cc(Cl)c1)c1ccc(F)c(S(=O)(=O)NC2CCCC2)c1 | inconclusive: 10 µM [cytotoxic, single point] | 
Cc1ccc(C)c(NS(=O)(=O)c2ccc3c4c(cccc24)C(=O)N3)c1 | inconclusive: 12.6 µM [cytotoxic, partial curve] | 
Cc1c(NS(=O)(=O)c2cccc(C(=O)O)c2)c(=O)n(-c2ccccc2)n1C | inconclusive: 0.1 µM [cytotoxic, full curve, poor fit] | 
Cc1ccc(NC(=O)c2ncn(-c3ccccc3)n2)cc1Cl | inconclusive: 20 µM [cytotoxic, partial curve, poor fit] | 
CCCc1cc(=O)oc2cc(OCc3ccc(OC)cc3)c(Cl)cc12 |  | inactive: 7.55% [at 1.84 µM]
COCCCNC(=O)c1c(NC(=O)c2nc(S(C)(=O)=O)ncc2Cl)sc2c1CCCC2 | inactive | 
Cn1c2c(c(=O)n(C)c1=O)C(c1ccccc1C(F)(F)F)CC(=O)N2 (stereo unspecified) | inconclusive: 14.1 µM [cytotoxic, single point] | 
COc1ccc(S(=O)(=O)c2cc3cc(C(C)(C)C)cc(O)c3oc2=O)cc1 | inconclusive: 11.2 µM [cytotoxic, single point] | 
CCOc1ccc2c(c1)c(=O)c(C(=O)c1ccccc1)cn2Cc1ccccc1F | inconclusive: 20 µM [cytotoxic, single point] | 
O=C(CCS(=O)(=O)c1ccccc1)N(Cc1cccnc1)c1nc2c(F)cccc2s1 | inconclusive: 2.51 µM [cytotoxic, full curve] | 
Cc1ccc(-c2nc(CS(=O)(=O)CC(=O)NC(C)CCc3ccccc3)c(C)o2)cc1 (stereo unspecified) | inconclusive: 25.1 µM [cytotoxic, single point] | 
CCOc1ccc(N2CC(c3nc4ccccc4n3CCOc3ccc(OC)cc3)CC2=O)cc1 (stereo unspecified) | inconclusive: 0.141 µM [cytotoxic, full curve, poor fit] | 
CCOc1ccc2nc(N3CCCC(C(=O)NCCc4ccc(OC)cc4OC)C3)sc2c1 (stereo unspecified) | inactive | 
Cc1cccn2c(=O)cc(COc3ccc(NC(=O)COc4ccc(F)cc4)cc3)nc12 | inconclusive: 0.005 µM [cytotoxic, full curve, poor fit] | 
Oc1ccccc1CNc1cnc2ccccc2c1 | inactive | 

SMILES | Potency | activity, negative = cell killing
CCOc1cccc(-c2nc3ccccc3c(=O)o2)c1 | inconclusive: 10 µM [cytotoxic, partial curve] | 
Cc1ccc(CNCc2c(C(=O)O)c(C)n(Cc3ccc(C)cc3)c2C)cc1 | inconclusive: 0.0316 µM [cytotoxic, full curve] | 
c1ccc(CSc2ccc(-c3ccco3)nn2)cc1 | inconclusive: 31.6 µM [cytotoxic, single point] | 
Cc1ccc(C)c(NC(=O)C(Cc2ccccc2)N2Cc3ccccc3C2=O)c1 (stereo unspecified) | inactive | 
CC(C)c1ccc(NC(=O)CCS(=O)(=O)c2ccc(Br)s2)cc1 | inconclusive: 14.1 µM [cytotoxic, single point] | 
CCCCNC(=O)CSc1c2c(nc3ccc(Cl)cc13)CCCC2 | inactive | 
COc1ccc(CNC(=O)Cc2c(C)c3ccc(O)cc3oc2=O)cc1 | inconclusive: 0.158 µM [cytotoxic, full curve, poor fit] | 
COc1ccc(-n2c(-c3ccc(Cl)cc3)cc3c2CC(C)(C)CC3=O)c(OC)c1 | inconclusive: 22.4 µM [cytotoxic, single point] | 
CC(C)c1ccc(NS(=O)(=O)c2ccc3[nH]cc(C(=O)NC4CCCCC4)c(=O)c3c2)cc1 | inconclusive: 12.6 µM [cytotoxic, single point] | 
O=C(NCc1ccccc1Cl)C1CCCN(c2nc3ccccc3n3cccc23)C1 (stereo unspecified) | inconclusive: 11.2 µM [cytotoxic, partial curve, poor fit] | 
Cc1ccc(C)c(NC(=O)C(C)N(c2ccccc2)S(C)(=O)=O)c1 (stereo unspecified) | inactive | 
COC(=O)c1ccc(NS(=O)(=O)c2ccc3[nH]c4c(c3c2)CCCCC4)cc1 | active: 15.8 µM | 
CCOC(=O)c1cc2c(=O)n3ccccc3nc2n(Cc2ccco2)c1=NC(=O)c1cc(C)cc(C)c1 | inconclusive: 0.794 µM [cytotoxic, full curve, poor fit] | 
CN(Cc1ccccc1)C(=O)NC1CCCCC1 | inactive | 
COc1cc(CN2CCc3nc(Nc4ccc5c(c4)OCCO5)ncc3C2)cc(OC)c1OC | inconclusive: 3.16 µM [cytotoxic, full curve] | 
COc1cccc(N2CCN(S(=O)(=O)c3ccc(-c4cnc(C5CC5)o4)cc3)CC2)c1 | inactive | 
Cc1cccc2c1-c1sc(C(=O)NCc3ccccc3Cl)cc1CO2 | inconclusive: 35.5 µM [cytotoxic, single point] | 
COc1ccc(-c2cc(C(=O)Oc3ccc(Br)cc3)c3ccccc3n2)cc1 | active: 12.6 µM | 
CCc1cccc(C)c1Nc1c(-c2cccs2)nc2ncccn12 | inconclusive: 17.8 µM [cytotoxic, partial curve] | 
Cc1cc(C)c(S(=O)(=O)NCC(c2ccco2)S(=O)(=O)c2ccccc2)c(C)c1 (stereo unspecified) | inactive | 
COc1ccccc1C(=O)OCc1cc(=O)n2c(C)csc2n1 | inconclusive: 10 µM [cytotoxic, partial curve] | 
Cc1ccc(-n2nc3c(N4CCCC(C(=O)NCc5ccccc5C)C4)nnc(C)c3c2C)cc1 (stereo unspecified) | inconclusive: 15.8 µM [cytotoxic, single point] | 

SMILES | Potency | activity, negative = cell killing
Cc1ccc(CCNC(=O)c2cc3ccccn3n2)cc1 | inactive | 
Cc1ccc(C(=O)CC2(O)C(=O)N(CCc3ccccc3)c3ccc(Br)cc32)cc1 (stereo unspecified) | inconclusive: 25.1 µM [cytotoxic, single point] | 
Cc1nc(CC(=O)Nc2ccc(C(N)=O)cc2)cs1 | inconclusive: 6.31 µM [cytotoxic, partial curve, poor fit] | 
Cc1ccc(NC(=O)CCCn2c(=O)c3cccn3c3ccccc32)c(Cl)c1 | inconclusive: 0.794 µM [cytotoxic, full curve] | 
COc1cc(OC)c(NC(=O)c2csc3c2CCC(C)C3)cc1Cl (stereo unspecified) | inconclusive: 31.6 µM [cytotoxic, single point] | 
CCc1ccccc1N1CC(c2nc3ccccc3n2CCCOc2ccc(Cl)cc2)CC1=O (stereo unspecified) | inconclusive: 31.6 µM [cytotoxic, single point] | 
O=C(Nc1ccc2oc(-c3cc(Br)ccc3Cl)nc2c1)c1cc2ccccc2o1 | inconclusive: 12.6 µM [cytotoxic, partial curve] | 
Cc1ccccc1OCCn1c(=N)n(C(C)C)c2ccccc21 | inconclusive: 25.1 µM [cytotoxic, single point] | 
Cc1cc(NC(=O)c2cc(-c3cccc(Cl)c3)on2)n(-c2ccccc2)n1 | inconclusive: 31.6 µM [cytotoxic, single point] | 
COc1ccc(-c2noc(-c3ccc(NCc4cccnc4)c([N+](=O)[O-])c3)n2)cc1OC | inactive | 
O=C(NCCCN1CCN(c2cccc(Cl)c2)CC1)c1cnn(-c2ccc(F)cc2)c1-n1cccc1 | active: 22.4 µM | 
CCOC(=O)c1c(C)oc2ncnc(Nc3cc(C)cc(C)c3)c12 | inconclusive: 31.6 µM [cytotoxic, single point] | 
COc1cc(NC(=O)c2cc(-c3cccc(OC)c3)n[nH]2)cc(OC)c1 | inconclusive: 8.91 µM [cytotoxic, partial curve] | 
CCOc1ccc(-n2nc3ccc(NC(=O)Cc4ccccc4)cc3n2)cc1 | inactive | 
CC1CCc2c(sc(NC(=O)CCCOc3ccccc3)c2C(N)=O)C1 (stereo unspecified) | inactive | 
COc1ccc(CCNc2ncnc3c2nnn3C)cc1 | inconclusive: 6.31 µM [cytotoxic, partial curve] | 
Cc1ccc(C)c(S(=O)(=O)n2nc(C)c(S(=O)(=O)N3CCCCCC3)c2C)c1 | inconclusive: 0.282 µM [cytotoxic, full curve, poor fit] | 
COc1c(C)cc(NS(=O)(=O)c2ccc3c(c2)OCCO3)cc1C | inactive | 
CCOc1ccc(CNC(=O)C2=Cc3cccc(OC)c3OC2)cc1 | inconclusive: 0.158 µM [cytotoxic, full curve, poor fit] | 
CCOc1ccccc1CNC(=O)c1oc2c(c1C)-c1nn(Cc3cccc(Cl)c3)cc1CC2 | inconclusive: 1.41 µM [cytotoxic, partial curve] | 
COc1cc(-c2cc3n(C)c(C)c(CCC(=O)NC4CCCCC4)c(=O)n3n2)cc(OC)c1OC | inactive | 
CCC(=O)N1CCc2cc(Br)cc(S(=O)(=O)CCC(=O)Nc3ccc(Cl)cc3)c21 | inconclusive: 0.0316 µM [cytotoxic, full curve, poor fit] | 
